The record followed here is PMC12040169 (PLOS Biology, 2025).

Molecules are shown by their SMILES. The list shows a part of the results.

In this assay the test system is T1, C. trachomatis L2/434/Bu expressing GFP (CTL2-GFP).
T1 construct: L2/434/Bu GFP intracellular growth in HeLa cells
More on the design: species or system HeLa; C. trachomatis total inclusion area by high-content imaging, normalised to DMSO. The conditions noted are these: total inclusion area; 28.5 h, 10 µM; inhibitor. Summed up:
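Bulk GFP and resorufin signals were read first. Wells were then fixed, stained with Hoechst and imaged to detect GFP inclusions and host nuclei. MICs followed the previously described calculation.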
Take `COc1cnc(-c2ccc(Cl)cc2Cl)c(NC(=O)Cc2ccccc2)n1` [CBK145398]: the “% of control remaining” value is 105.26.
For `CN(C)c1ccc(-c2cc(NCCc3ccncc3)ncn2)cc1` [CBK090849] the value was 116.729.
With `CCc1cc(C(=O)N2CCC(Oc3ccc(F)cc3)CC2)n(C)n1` [CBK282034] the figure was 71.8202; with `O=C(c1ccncc1)N1CCCC(c2cc3ccccc3cn2)C1` (centres unmarked) [CBK285166], 94.9795.
For `CCNC(=S)N1CC[C@@H]2N(C)CC[C@]2(c2ccc(OC)c(OC)c2)CC1` [CBK059113T], the “% of control remaining” value amounted to 78.3515.
With `Cc1nc2n(CCN3CCCCC3)c3ccccc3n2n1` [CBK278258C] the figure was 84.3937; with `O=C(COC(=O)c1ccc(Cl)c(Cl)c1)c1ccc(Oc2ccc([N+](=O)[O-])cc2)cc1` [CBK264821], 91.9449; with `Cc1ccc(S(=O)(=O)Nc2ccc(N3CCCNCC3)cc2N(C)S(C)(=O)=O)cc1` [CBK000017C], 74.1486.
On to `O=C(COc1ccc(F)cc1)N1CCC2(CCNC2)C1` (centres unmarked) [CBK156691C], for which the “% of control remaining” value was 116.946.
With `O=C(COC(=O)c1cc(-c2ccc(Cl)cc2)nc2ccccc12)c1cccc([N+](=O)[O-])c1` [CBK293923], the “% of control remaining” value came out at 119.669.
With `C/C(=N\NC(=O)CCc1c(C)n[nH]c1C)c1ccc(N)cc1` [CBK262935] the figure was 92.3388.
With `NC(=O)N/N=C/c1cc(Br)cs1` [CBK026434] the figure was 66.6754; with `CCCc1[nH]nc(O)c1CCc1cccc(OC)c1OC` [CBK075078], 112.438.
As for `CC1CN(CCNCc2cn(C)nc2-c2cccnc2)CC(C)O1` (centres unmarked) [CBK305151], the “% of control remaining” value was 51.6123.
For `O=C(CCCc1nc(-c2ccccc2Cl)no1)Nc1cccnc1` [CBK269122] the value was 133.284; for `FC(F)(F)c1ccnc(SCCc2ccncc2)n1` [CBK105302], 131.199; for `COc1ccc(NC(=O)C2CC3CCC2C3)cc1S(=O)(=O)Nc1ccc(Cl)cc1` (centres unmarked) [CBK297945], 80.551.
With `CCCc1n[nH]c(=S)n1CC(=O)NCc1ccc(OCCC(C)C)c(OC)c1` [CBK297743] the figure was 98.919; with `CC(=O)Nc1cccc(CN(CCCCO)C2CC2)c1` [CBK304806], 80.2603; with `N#Cc1ccccc1Cn1ccc2c(N3CCNCC3)cccc21` [CBK200015C], 103.887.
With `COc1ccc([C@@]23CC[C@@H](NC(=O)Nc4ccc5ccccc5c4)C[C@@H]2N(C)CC3)cc1OC` [CBK034181T] the figure was 93.6525; with `CSc1nc(N)c2nccnc2n1` [CBK025779], 61.9488.
For the molecule `COc1ccc(C)cc1NC(=S)NCc1cnn(C)c1` [CBK267025], the “% of control remaining” value is recorded as 86.7617.
